The text below walks through data of US20260207759A1 (SUZHOU SUNCADIA BIOPHARMACEUTICALS, published 2026).

Experiment [1] concerns the target human CD40 on the cell surface (Raji cells, HEK-Blue CD40L cells, primary human B cells and DCs) (human, UniProt P25942 21-277). The experiment in a line: cell-based or functional assay.
Experiment [2] concerns the target T1, his-tagged human CD40 recombinant protein (h-CD40-his, Acrobiosystems Cat. #CD0-H5228) (human, UniProt P25942 part only).
T1 construct: Purchased reagent; also called His-tagged human CD40 antigen; not shown: His tag
The experiment in a line: SPR (Biacore), ADC captured on anti-human Fc chip, His-tagged CD40 as analyte, 1:1 model.

B1: ADC-2 (9E6-L4H2-compound 2), anti-CD40 antibody-drug conjugate (other)
heavy: QVQVQESGPGLVKPSDTLSLTCTVSGFSLSSYDMSWIRQPPGKGLEWIGAIGGAGGTYYASWAKSRVTISVDTSLNQVSLKLSSVTAADTAVYYCARGWTRLDLWGQGTLVTVSSASTKGPSVFPLAPSSKSTSGGTAALGCLVKDYFPEPVTVSWNSGALTSGVHTFPAVLQSSGLYSLSSVVTVPSSSLGTQTYICNVNHKPSNTKVDKKV[human IgG1 Fc with changes not spelt out]
light: DIQLTQSPSFLSASVGDRVTITCQASEDISSNLAWYQQKPGKPPKLLIFPASNLASGVPSRFSGSGSGTEFTLTISSLQPEDFATYYCQGGYWTSTSNFGQGFGGGTKVEIKRTVAAPSVFIFPPSDEQLKSGTASVVCLLNNFYPREAKVQWKVDNALQSGNSQESVTEQDSKDSTYSLSSTLTLSKADYEKHKVYACEVTHQGLSSPVTKSFNRGEC
modifications: budesonide-linker compound 2 (bromoacetamide) conjugated after TCEP reduction; sites not stated; found DAR 3.8 per antibody
notes: also called anti-CD40-ADC; CD40-ADC
Consider B1, for which, in experiment [1], the “B cell activation assay, CD19+CD69+%, Donor 1, IC50” value is 0.63 nM and the “B cell activation assay, CD19+CD69+%, Donor 2, IC50” value was 0.48 nM. For the same molecule, in experiment [2], the Kd (in general, the concentration at which binding is half-saturated) stood at 0.776 nM; the koff (usually the first-order rate constant of dissociation) stood at 0.000216 s⁻¹; the association rate constant (kon) (usually a measure of how fast the partners come together) amounted to 278000 M⁻¹ s⁻¹.
